Experimental data: the supplement of paper PMC4604168 (melanoma cell lines)
The other results are listed elsewhere or left out. Many values rest on one well or one pass, so single values are uncertain.

Key:
Experiment in all cases: cell count relative to DMSO control; melanoma cells; higher = more viable cells
Settings in all cases: library dose: standard library concentration; 72 h
G361 = test system: G361
IPC-298 = test system: IPC-298
IST-MEL1 = test system: IST-MEL1
LB2518-MEL = test system: LB2518-MEL
LOXIMVI = test system: LOXIMVI
MEL-HO = test system: MEL-HO
MZ2-MEL = test system: MZ2-MEL
MeWo = test system: MeWo
RPMI7951 = test system: RPMI7951
RVH-421 = test system: RVH-421
SkMel28 = test system: SkMel28
SkMel2 = test system: SkMel2
SkMel30 = test system: SkMel30
SkMel5 = test system: SkMel5
UACC257 = test system: UACC257
UACC62 = test system: UACC62
WM115 = test system: WM115
WM1716 = test system: WM1716
WM1745 = test system: WM1745
WM3526 = test system: WM3526
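Also: cells treated in 1,536-well plates, then fixed and DAPI-stained, with nuclei counted from automated high-throughput microscope images.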

Compound	cell count (G361) [%]	cell count (IPC-298) [%]	cell count (IST-MEL1) [%]	cell count (LB2518-MEL) [%]	cell count (LOXIMVI) [%]	cell count (MEL-HO) [%]	cell count (MZ2-MEL) [%]	cell count (MeWo) [%]	cell count (RPMI7951) [%]	cell count (RVH-421) [%]	cell count (SkMel28) [%]	cell count (SkMel2) [%]	cell count (SkMel30) [%]	cell count (SkMel5) [%]	cell count (UACC257) [%]	cell count (UACC62) [%]	cell count (WM115) [%]	cell count (WM1716) [%]	cell count (WM1745) [%]	cell count (WM3526) [%]
COc1cc([C@@H]2c3cc4c(cc3[C@@H](O[C@@H]3O[C@@H]5CO[C@@H](C)O[C@H]5[C@H](O)[C@H]3O)[C@H]3COC(=O)[C@H]23)OCO4)cc(OC)c1O [etoposide] + Nc1cccc2c1CN(C1CCC(=O)NC1=O)C2=O [lenalidomide] (first compound 0.1 µM, partner dose 5 µM)	90.9	70.5	86.2	76.9	59.6	101	71.8	82.7	93.5	85.2	72.8	69.4	76.8	75.7	90.6	55.5	67.9	72.2	81.9	84.3
CCN(CC)CCNC(=O)c1c(C)[nH]c(/C=C2\C(=O)Nc3ccc(F)cc32)c1C [sunitinib] + CO[C@@H]1[C@H](N(C)C(=O)c2ccccc2)C[C@H]2O[C@]1(C)n1c3ccccc3c3c4c(c5c6ccccc6n2c5c31)C(=O)NC4 [Midostaurin] (first compound 2 µM, partner dose 0.4 µM)	70.7	77.7	84.5	53.4	69.8	88.8	91.2	59.4	37.4	113	68.1	70.6	54.4	42.4	62.1	49	44.9	62.1	23.6	52.4
Cn1cnc2c(F)c(Nc3ccc(Br)cc3Cl)c(C(=O)NOCCO)cc21 [selumetinib] + CNC(=O)c1cc(Oc2ccc(NC(=O)Nc3ccc(Cl)c(C(F)(F)F)c3)cc2)ccn1 [sorafenib] (first compound 0.075 µM, partner dose 2 µM)	68.8	49.6	84	54.8	134	77	67.6	57.1	111	84.8	51.9	22	64.4	79.4	87.9	54.2	71	72.2	73.1	60
Cn1cnc2c(F)c(Nc3ccc(Br)cc3Cl)c(C(=O)NOCCO)cc21 [selumetinib] + C[C@@H]1CCN(C(=O)CC#N)C[C@@H]1N(C)c1ncnc2[nH]ccc12 [CP690550] (first compound 0.075 µM, partner dose 5 µM)	83.7	68	94.5	43.8	106	98	78.9	104	159	75	71.3	67.1	74.5	90.1	92.5	61.9	77	82	89.3	82.5
CCN(CC)CCNC(=O)c1c(C)[nH]c(/C=C2\C(=O)Nc3ccc(F)cc32)c1C [sunitinib] + C=CCn1c(=O)c2cnc(Nc3ccc(N4CCN(C)CC4)cc3)nc2n1-c1cccc(C(C)(C)O)n1 [MK1775] (first compound 2 µM, partner dose 0.1 µM)	75.6	53.1	106	53	93.3	99.9	102	53.3	72.3	134	39.9	66.1	61.2	49.4	82.4	44	75.4	92	50	41.9
CCN(CC)CCNC(=O)c1c(C)[nH]c(/C=C2\C(=O)Nc3ccc(F)cc32)c1C [sunitinib] + Cn1c(Nc2ccc(C(F)(F)F)cc2)nc2cc(Oc3ccnc(-c4ncc(C(F)(F)F)[nH]4)c3)ccc21 [CHIR265] (first compound 2 µM, partner dose 0.4 µM)	29.4	42.2	83.8	43	114	64.9	66.6	42.3	57	69.8	30.4	18.9	48.2	32.6	78.9	28.9	33	55.1	39.8	29.4
CCN(CC)CCNC(=O)c1c(C)[nH]c(/C=C2\C(=O)Nc3ccc(F)cc32)c1C [sunitinib] + NCC(=O)Nc1ccc(-n2nc(C(F)(F)F)cc2-c2ccc3c(ccc4ccccc43)c2)cc1 [OSU03012] (first compound 2 µM, partner dose 5 µM)	35	59.4	85.3	63.4	74.8	83.2	95.9	56.9	51.6	93.3	20.5	43.6	36.3	45.9	75.2	58.3	57.2	80.8	37.7	58.1
Cn1cnc2c(F)c(Nc3ccc(Br)cc3Cl)c(C(=O)NOCCO)cc21 [selumetinib] + O=c1cc(-c2cccc3c2Sc2ccccc2S3)oc(N2CCOCC2)c1 [KU55933] (first compound 0.075 µM, partner dose 5 µM)	54.2	45.4	90.6	42.5	94.8	66.6	56.1	65.1	83.3	79.8	45	26.4	62.8	79.1	119	60.2	51.9	84.2	–	59.5
C[C@]1(O)C[C@@H](c2nc(-c3ccc4ccc(-c5ccccc5)nc4c3)c3c(N)nccn32)C1 + CN(NC(=O)CC(=O)NN(C)C(=S)c1ccccc1)C(=S)c1ccccc1 [STA4783] (first compound 2 µM, partner dose 0.03 µM)	28.5	70.8	35	30.8	56.2	79.9	94	20.8	86.4	57.3	14.7	49.2	91.4	53.9	84.5	51	22.7	74.6	20.1	80.4
COc1cc([C@@H]2c3cc4c(cc3[C@@H](O[C@@H]3O[C@@H]5CO[C@@H](C)O[C@H]5[C@H](O)[C@H]3O)[C@H]3COC(=O)[C@H]23)OCO4)cc(OC)c1O [etoposide] + CCc1ccc(CCOc2ccc(CC3SC(=O)NC3=O)cc2)nc1 [pioglitazone] (first compound 0.1 µM, partner dose 10 µM)	98.6	58.8	109	89.5	185	99.6	68.1	87	106	96.9	65.5	62.8	93.5	67.7	92.8	68.5	73.3	69.9	–	103
COc1cc([C@@H]2c3cc4c(cc3[C@@H](O[C@@H]3O[C@@H]5CO[C@@H](C)O[C@H]5[C@H](O)[C@H]3O)[C@H]3COC(=O)[C@H]23)OCO4)cc(OC)c1O [etoposide] + Cn1cncc1[C@@](N)(c1ccc(Cl)cc1)c1ccc2c(c1)c(-c1cccc(Cl)c1)cc(=O)n2C [tipifarnib] (first compound 0.1 µM, partner dose 0.05 µM)	74.7	77.9	142	67.5	88.2	96.7	97.8	84.4	90.2	112	73.9	72.2	83.2	87.1	87.5	70.8	99	55.3	82.7	87.3
COc1cc([C@@H]2c3cc4c(cc3[C@@H](O[C@@H]3O[C@@H]5CO[C@@H](C)O[C@H]5[C@H](O)[C@H]3O)[C@H]3COC(=O)[C@H]23)OCO4)cc(OC)c1O [etoposide] + COCC[n+]1c2c(n(Cc3cnccn3)c1C)C(=O)c1ccccc1C2=O [YM155] (first compound 0.1 µM, partner dose 0.002 µM)	90.2	47.6	40.3	27.9	65.8	95.9	28.8	39.1	36.7	93.5	37.7	44.2	72.7	22.6	26.3	64.2	47.2	49.9	74	32.4
COc1cc([C@@H]2c3cc4c(cc3[C@@H](O[C@@H]3O[C@@H]5CO[C@@H](C)O[C@H]5[C@H](O)[C@H]3O)[C@H]3COC(=O)[C@H]23)OCO4)cc(OC)c1O [etoposide] + O=S(=O)(c1ccccc1)N(CC(F)(F)F)c1ccc(C(O)(C(F)(F)F)C(F)(F)F)cc1 [T0901317] (first compound 0.1 µM, partner dose 7 µM)	89.8	67.8	102	87.6	96.4	92.7	69.2	94.9	86.9	34.9	74.7	74.1	76.4	59.2	88.9	59.8	62.6	70.6	–	86.4
C[C@]1(O)C[C@@H](c2nc(-c3ccc4ccc(-c5ccccc5)nc4c3)c3c(N)nccn32)C1 + Cc1cc([N+](=O)[O-])ccc1NS(=O)(=O)c1cc(Cl)ccc1Cl [FH535] (first compound 2 µM, partner dose 5 µM)	43.6	55.4	53.3	76.9	67.5	61.1	81.7	71.7	86.4	38.7	59.9	76.4	69.4	66.4	64.1	106	99.7	82.6	–	66.5
CCN(CC)CCNC(=O)c1c(C)[nH]c(/C=C2\C(=O)Nc3ccc(F)cc32)c1C [sunitinib] + C=CCNC1=C2C[C@@H](C)C[C@H](OC)[C@H](O)[C@@H](C)/C=C(\C)[C@H](OC(N)=O)[C@@H](OC)/C=C\C=C(/C)C(=O)NC(=CC1=O)C2=O [Tanespimycin] (first compound 2 µM, partner dose 0.01 µM)	29.8	58.2	50.6	33.9	224	75.1	88.8	42.9	61.4	99.3	29.6	47.3	49.1	32.7	94.8	34.4	16.4	74.9	31.2	43.3
Cn1cnc2c(F)c(Nc3ccc(Br)cc3Cl)c(C(=O)NOCCO)cc21 [selumetinib] + CO[C@@H]1[C@H](N(C)C(=O)c2ccccc2)C[C@H]2O[C@]1(C)n1c3ccccc3c3c4c(c5c6ccccc6n2c5c31)C(=O)NC4 [Midostaurin] (first compound 0.075 µM, partner dose 0.4 µM)	39.5	60.3	61.5	43.3	61.7	69	36.9	70.3	44.8	68.9	62	46.5	65.6	57	97.1	69.2	44.2	51.2	32.2	66.5
